Measurements: ChEMBL document CHEMBL4888484, “Replenishing the malaria drug discovery pipeline: Screening and hit evaluation of the MMV Hit Generation Library 1 (HGL1) against asexual blood stage Plasmodium falciparum ,using a nano luciferase reporter read-out” (2022)
Among all 4,800 compounds or so, about 410 (8.5%) showed an effect of 50% or more. The list shows a part of the results.

test system: Plasmodium falciparum; assay: Confirmatory screen in NF54 pLDH assay, in single point, at 2uM, 72h; type: functional, Erythrocyte; conditions: timepoint 72 hour

| SMILES | % Inhibition |
| --- | --- |
| Cc1nn(C)cc1-c1cc(-c2nnc(Nc3ccn(Cc4ccccc4Cl)n3)s2)no1 | 19% |
| Brc1cnn(Cc2cnc(NC3C4CCOC4C34CCC4)s2)c1 (stereo not drawn) | 4% |
| COc1ccnc(NCc2ccc(N3CCOCC3)cc2)n1 | 10% |
| CCCNC(=O)Cn1nc2cc(-c3ccc(OC)cc3)nc(C)n2c1=O | -8% |
| CC[C@@H](C(=O)Nc1cccc(C(F)(F)F)c1)n1c(C)nc2onc(C)c2c1=O | -1% |
| COCc1nsc(N2CC(C)OC3(CCCOC3)C2)n1 (stereo not drawn) | 5% |
| Oc1ccc(Br)cc1-c1nc2cnccn2c1NC1CCCCC1 | 15% |
| COc1ccc(C(=O)Cn2nc(C)cc2C)cc1 | 5% |
| CCn1cc(Cl)c(C(=O)N2CCN(C(=O)c3ccco3)CC2)n1 | -20% |
| Brc1cncnc1N1CCC[C@H](c2nnn[nH]2)C1 | -7% |
| C=CCC1(Nc2ccccc2)c2ccccc2-c2ccccc21 | -7% |
| CC1(CO)CCCC1NCc1cnc(N2CCOCC2)nc1 (stereo not drawn) | 12% |
| CCCOc1cc(=O)c(C(=O)N2CCCC2)nn1-c1ccc(C)cc1 | 0% |
| Cn1ccc(C2=Nc3ccccc3NC(=O)C2)n1 | -4% |
| c1ccc(-c2cn[nH]c2N2CCNCC2)cc1 | -16% |
| Cc1ccc(S(=O)(=O)/N=[S@@](/c2ccccc2)c2ccccc2C)cc1 | -13% |
| COc1ccc(Nc2nnc(/C=C/c3ccccc3)c(=O)n2N)cc1 | 16% |
| CCC(=O)N1CCc2sc(S(=O)(=O)N3CCN(c4cc(C)ccc4C)CC3)cc2C1 | 38% |
| CCNC(=O)C1Cc2ccc(OC)cc2N2CCN(c3ccc(OC)cc3)CC12 (stereo not drawn) | 4% |
| COc1cccc(-c2cc(C(=O)Nc3ccc(F)c(Cl)c3)c3c(C)nn(C)c3n2)c1 | 4% |
| Cc1ccc(CNC(=O)[C@@H](C)C2CCOCC2)o1 | 2% |
| O=C(Nc1cnccn1)c1cccnc1OCC(F)F | 6% |
| CC(C)(C)OC(=O)N(c1ccc(F)cc1)S(C)(=O)=O | 10% |

| SMILES | % Inhibition |
| --- | --- |
| N#CC1(C(=O)NC(C2CC2)C2CC2)CCCC1 | -18% |
| Cc1ccnc(NC(=O)c2cc(C#N)oc2C)n1 | 1% |
| O=C(Nc1ccc(Cn2ccnc2)cc1)c1cc2ccccc2cc1OC(F)F | -12% |
| O=c1[nH]c2ccccc2nc1-c1cc(Br)ccc1NS(=O)(=O)c1cccc2nsnc12 | 3% |
| COCc1cc(=O)n(CC(=O)NCc2ccccc2Cl)c(N2CCCC2)n1 | -10% |
| CC(C)NC(=O)Cn1ccnc1CCN1C(=O)c2ccccc2C1=O | 10% |
| COc1ccc(S(=O)(=O)N2CCN(C(=O)N(C)C)[C@@H]2c2ccccc2)cc1 | 6% |
| Nc1ccc2c(NC3CCC(=O)NC3C3CC3)ncnc2n1 (stereo not drawn) | -16% |
| Cc1nn(C)c(C(=O)NCCCN2CCOCC2)c1Br | -8% |
| CCCCN(CC)C(=O)[C@@H]1CCC(=O)N(CC(C)C)[C@H]1c1cccnc1 | -20% |
| C[C@H](NC(=O)N(Cc1ccccc1F)C1CCC1)c1cnn(C)c1 | 8% |
| Cc1cccc(NC(=O)Nc2cc(F)c3[nH]c(=O)ccc3c2)c1 | -7% |
| Cc1nc(N2CCC(C)CC2)ncc1-c1cc(=O)[nH]c(NCc2ccccc2)n1 | -10% |
| Cc1cccc(C(=O)N[C@H]2CCN(c3ccccc3)C2=O)c1 | 11% |
| CC[C@H](C)NS(=O)(=O)c1cccc(N)c1 | 2% |
| Cc1cc(-c2nc(C3(c4ccncc4)CCC3)no2)ccn1 | 4% |
| Cc1nn(C)c(C)c1-c1cc(C(=O)Nc2sc3c(c2C#N)CCCC3)c2ccccc2n1 | -4% |
| Cc1ccc2c(c1)N(S(C)(=O)=O)CC[C@@H](C(=O)NC1CC1)O2 | -26% |
| Cc1ccc(NC(=O)Nc2cccc(-c3ccc(N4CCN(C)CC4)nn3)c2)cc1C | 13% |
| O=C1NC2(CCC2)C(=O)N1CCCCOc1ccccc1 | -7% |
| Cc1oc2ncn(CCN3CCCC3)c(=O)c2c1C(=O)Nc1ccc(C#N)cc1 | -1% |
| CCn1c(=O)c(N2CCC(C(=O)NCCCc3ccccc3)CC2)nc2cccnc21 | -22% |
| CO/N=C(\Nc1cc(C)ccc1C)c1nonc1N | 16% |

| SMILES | % Inhibition |
| --- | --- |
| CCCn1nnnc1Cn1ncc2ccccc2c1=O | -5% |
| Cc1cc(=O)n2ncc(C(=O)Nc3cc(F)ccc3C)c2[nH]1 | -24% |
| O=C(c1nc(C2CC2)ncc1Br)N1CCC[C@H]1C1CCOCC1 | 8% |
| Nc1nc(N2CCC3(CC2)OCCO3)ncc1C(=O)Nc1ccccc1 | -9% |
| Cc1cccc(S(=O)(=O)c2cnc(N3CCC(Cc4ccccc4)CC3)nc2N)c1 | -18% |
| CCN1CCN(c2nc(O)c3c(n2)NC(=O)C[C@H]3c2cccc(F)c2)CC1 | -7% |
| C[C@H](NC(=O)c1ccco1)c1cc2c(cc1Br)OCCCO2 | -9% |
| CC[n+]1c(/C=C/N(C)c2ccccc2)oc2ccc(-c3ccccc3)cc21 | 91% |
| CC(C)(C)OC(=O)Nc1cccc(N)n1 | 8% |
| C=CCNC(=S)NS(=O)(=O)c1ccc(Cl)cc1 | 9% |
| CCn1nc(C)c(C(=O)Nc2sc3c(c2C(N)=O)CCC3)c1C | -15% |
| N#Cc1c(-c2ccccc2)cc(-c2ccccc2)n(C(=O)c2ccc(F)cc2)c1=O | 9% |
| Cc1[nH]ncc1CCCNCc1cscn1 | 9% |
| Cc1ccccc1OCc1nc2c3c(ncn2n1)Oc1cc(O)ccc1[C@@H]3c1ccccc1 | 14% |
| CC(=O)Nc1c(-c2ccc(C)cc2)c(C)nn1-c1ccc(C(=O)Nc2cc(C)ccn2)cc1 | 38% |
| C[C@@H](C(=O)Nc1ccc(Br)cn1)N1C(=O)CCC1=O | -25% |
| CCN(CC)CC(O)COc1c(Br)cc(C(C)(C)c2cc(Br)c(OCC(O)CN(CC)CC)c(Br)c2)cc1Br (stereo not drawn) | 99% |
| Cc1ccc(C(N)C(C)S(C)(=O)=O)cc1 (stereo not drawn) | -18% |
| CCOC(=O)c1ncn(C2CCCCC2)c1N | 10% |
| COc1ccc(C)c2sc(N(CCCn3ccnc3)C(=O)Cc3ccc(F)cc3)nc12 | 85% |
| c1cc(-c2nnc(-c3ccncc3)s2)ccn1 | 2% |
| Cc1ccc2c(c1)C1NC(=O)NC(C)(O2)C1C(=O)Nc1ccc(Cl)cc1 (stereo not drawn) | 7% |
